Test results as given in patent publication US9987282B2, “Small molecule inhibitors of influenza A RNA-dependent RNA polymerase” (Nant Holdings IP, LLC, priority 2011, dated 2018).

System: influenza B
Conditions: confirmed by the inventors, no data shown

CCc1c(C)nc2cc(-c3ccc(OC)c(OC)c3)nn2c1NCCc1ccccn1 [A0435]
inhibition of influenza B: inhibitable
